Measured values as given in the supplement of paper PMC12230231.
± gives the standard deviation of the averaged measurements. Restriction of a single-cycle SIVsab GFP reporter by TRIM5α v1-loop variants in CRFK cells. Human variants: read share among cells still uninfected after two challenges over input, higher = gained restriction. Rhesus variants: share among infected cells over input, higher = lost restriction. Reporter dose not given per row. No active / inactive call per row; the paper calls a change when both replicates lie above its controls (mean + 2 SD of stop or wild-type variants, or the top frameshift score). Residues outside the varied loop are taken from Swiss-Prot. The paper reads the human single-substitution scores as noise; they and the rhesus combinations repeat poorly (rank correlation 0.3 to 0.4), indel scores repeat only for the top variants, rhesus substitutions well (0.9).

Tested on: SIVsab (simian immunodeficiency virus of sabaeus monkeys), single-cycle GFP reporter, in CRFK cells
Test: enrichment among uninfected cells over input (fold); higher = stronger restriction
Conditions: library: human / rhesus combinations
Experimental: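 Pools of CRFK cells expressing variants of the TRIM5α v1 loop were challenged with the single-cycle reporter, sorted by GFP and sequenced; mean of two replicates.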

Row | Sequence | enrichment
1 | MASGILVNVKEEVTCPICLELLTQPLSLDCGHSFCQACLTANHKKSMLDKGESSCPVCRISYQPENIRPNRHVANIVEKLREVKLSPEGQKVDHCARHGEKLLLFCQEDGKVICWLCERSQEHRGHHTFLTEEVAREYQVKLQAALEMLRQKQQEAEELEADIREEKASWKTQIQYDKTNVLADFEQLRDILDWEESNELQNLEKEEEDILKSLTNSETEMVQQTQSLRELISDLEHRLQGSVMELLQGVDGVIKRTENVTLKKPETFPKNQRRVFRAPDLKGMLEVFRELTDVRRYWVDVTVAPNNISCAVISEDKRQVSSPKPQIIYGAPGTRFTFQTLVNFNYCTGILGSQSITSGKHYWEVDVSKKTAWILGVCAGFQPDAMCNIEKNENYQPKYGYWVIGLEEGVKCSAFQDSSFHTPSVPFIVPLSVIICPDRVGVFLDYEACTVSFFNITNHGFLIYKFSHCSFSQPVFPYLNPRKCGVPMTLCSPSS [human TRIM5α, 330-340 = GAPGTRFTFQTLV] | 0.231 ± 0.045
2 | MASGILVNVKEEVTCPICLELLTQPLSLDCGHSFCQACLTANHKKSMLDKGESSCPVCRISYQPENIRPNRHVANIVEKLREVKLSPEGQKVDHCARHGEKLLLFCQEDGKVICWLCERSQEHRGHHTFLTEEVAREYQVKLQAALEMLRQKQQEAEELEADIREEKASWKTQIQYDKTNVLADFEQLRDILDWEESNELQNLEKEEEDILKSLTNSETEMVQQTQSLRELISDLEHRLQGSVMELLQGVDGVIKRTENVTLKKPETFPKNQRRVFRAPDLKGMLEVFRELTDVRRYWVDVTVAPNNISCAVISEDKRQVSSPKPQIIYGAPGTRYTFQTLTNFNYCTGILGSQSITSGKHYWEVDVSKKTAWILGVCAGFQPDAMCNIEKNENYQPKYGYWVIGLEEGVKCSAFQDSSFHTPSVPFIVPLSVIICPDRVGVFLDYEACTVSFFNITNHGFLIYKFSHCSFSQPVFPYLNPRKCGVPMTLCSPSS [human TRIM5α, 330-340 = GAPGTRYTFQTLT] | 0.0236 ± 0.033
3 | MASGILVNVKEEVTCPICLELLTQPLSLDCGHSFCQACLTANHKKSMLDKGESSCPVCRISYQPENIRPNRHVANIVEKLREVKLSPEGQKVDHCARHGEKLLLFCQEDGKVICWLCERSQEHRGHHTFLTEEVAREYQVKLQAALEMLRQKQQEAEELEADIREEKASWKTQIQYDKTNVLADFEQLRDILDWEESNELQNLEKEEEDILKSLTNSETEMVQQTQSLRELISDLEHRLQGSVMELLQGVDGVIKRTENVTLKKPETFPKNQRRVFRAPDLKGMLEVFRELTDVRRYWVDVTVAPNNISCAVISEDKRQVSSPKPQIIYQARGTLFTFPSLVNFNYCTGILGSQSITSGKHYWEVDVSKKTAWILGVCAGFQPDAMCNIEKNENYQPKYGYWVIGLEEGVKCSAFQDSSFHTPSVPFIVPLSVIICPDRVGVFLDYEACTVSFFNITNHGFLIYKFSHCSFSQPVFPYLNPRKCGVPMTLCSPSS [human TRIM5α, 330-340 = QARGTLFTFPSLV] | 0.342 ± 0.11
4 | MASGILVNVKEEVTCPICLELLTQPLSLDCGHSFCQACLTANHKKSMLDKGESSCPVCRISYQPENIRPNRHVANIVEKLREVKLSPEGQKVDHCARHGEKLLLFCQEDGKVICWLCERSQEHRGHHTFLTEEVAREYQVKLQAALEMLRQKQQEAEELEADIREEKASWKTQIQYDKTNVLADFEQLRDILDWEESNELQNLEKEEEDILKSLTNSETEMVQQTQSLRELISDLEHRLQGSVMELLQGVDGVIKRTENVTLKKPETFPKNQRRVFRAPDLKGMLEVFRELTDVRRYWVDVTVAPNNISCAVISEDKRQVSSPKPQIIYQARGTLYTFQTLTNFNYCTGILGSQSITSGKHYWEVDVSKKTAWILGVCAGFQPDAMCNIEKNENYQPKYGYWVIGLEEGVKCSAFQDSSFHTPSVPFIVPLSVIICPDRVGVFLDYEACTVSFFNITNHGFLIYKFSHCSFSQPVFPYLNPRKCGVPMTLCSPSS [human TRIM5α, 330-340 = QARGTLYTFQTLT] | 0.113 ± 0.11
5 | MASGILVNVKEEVTCPICLELLTQPLSLDCGHSFCQACLTANHKKSMLDKGESSCPVCRISYQPENIRPNRHVANIVEKLREVKLSPEGQKVDHCARHGEKLLLFCQEDGKVICWLCERSQEHRGHHTFLTEEVAREYQVKLQAALEMLRQKQQEAEELEADIREEKASWKTQIQYDKTNVLADFEQLRDILDWEESNELQNLEKEEEDILKSLTNSETEMVQQTQSLRELISDLEHRLQGSVMELLQGVDGVIKRTENVTLKKPETFPKNQRRVFRAPDLKGMLEVFRELTDVRRYWVDVTVAPNNISCAVISEDKRQVSSPKPQIIYQAPGTLYTFPTLTNFNYCTGILGSQSITSGKHYWEVDVSKKTAWILGVCAGFQPDAMCNIEKNENYQPKYGYWVIGLEEGVKCSAFQDSSFHTPSVPFIVPLSVIICPDRVGVFLDYEACTVSFFNITNHGFLIYKFSHCSFSQPVFPYLNPRKCGVPMTLCSPSS [human TRIM5α, 330-340 = QAPGTLYTFPTLT] | 0.0847 ± 0.12
6 | MASGILVNVKEEVTCPICLELLTQPLSLDCGHSFCQACLTANHKKSMLDKGESSCPVCRISYQPENIRPNRHVANIVEKLREVKLSPEGQKVDHCARHGEKLLLFCQEDGKVICWLCERSQEHRGHHTFLTEEVAREYQVKLQAALEMLRQKQQEAEELEADIREEKASWKTQIQYDKTNVLADFEQLRDILDWEESNELQNLEKEEEDILKSLTNSETEMVQQTQSLRELISDLEHRLQGSVMELLQGVDGVIKRTENVTLKKPETFPKNQRRVFRAPDLKGMLEVFRELTDVRRYWVDVTVAPNNISCAVISEDKRQVSSPKPQIIYQAPGTRYTFPTFVNFNYCTGILGSQSITSGKHYWEVDVSKKTAWILGVCAGFQPDAMCNIEKNENYQPKYGYWVIGLEEGVKCSAFQDSSFHTPSVPFIVPLSVIICPDRVGVFLDYEACTVSFFNITNHGFLIYKFSHCSFSQPVFPYLNPRKCGVPMTLCSPSS [human TRIM5α, 330-340 = QAPGTRYTFPTFV] | 0.0596 ± 0.083

Same assay, conditions: library: insertions and deletions

Row | Sequence | enrichment
7 | MASGILVNVKEEVTCPICLELLTQPLSLDCGHSFCQACLTANHKKSMLDKGESSCPVCRISYQPENIRPNRHVANIVEKLREVKLSPEGQKVDHCARHGEKLLLFCQEDGKVICWLCERSQEHRGHHTFLTEEVAREYQVKLQAALEMLRQKQQEAEELEADIREEKASWKTQIQYDKTNVLADFEQLRDILDWEESNELQNLEKEEEDILKSLTNSETEMVQQTQSLRELISDLEHRLQGSVMELLQGVDGVIKRTENVTLKKPETFPKNQRRVFRAPDLKGMLEVFRELTDVRRYWVDVTVAPNNISCAVISEDKRQVSSPKPQIIYGARGTRYQTFVNFNYCTGYCTGILGSQSITSGKHYWEVDVSKKTAWILGVCAGFQPDAMCNIEKNENYQPKYGYWVIGLEEGVKCSAFQDSSFHTPSVPFIVPLSVIICPDRVGVFLDYEACTVSFFNITNHGFLIYKFSHCSFSQPVFPYLNPRKCGVPMTLCSPSS [human TRIM5α, 4-codon duplication at 344] | 0.529 ± 0.26
8 | MASGILVNVKEEVTCPICLELLTQPLSLDCGHSFCQACLTANHKKSMLDKGESSCPVCRISYQPENIRPNRHVANIVEKLREVKLSPEGQKVDHCARHGEKLLLFCQEDGKVICWLCERSQEHRGHHTFLTEEVAREYQVKLQAALEMLRQKQQEAEELEADIREEKASWKTQIQYDKTNVLADFEQLRDILDWEESNELQNLEKEEEDILKSLTNSETEMVQQTQSLRELISDLEHRLQGSVMELLQGVDGVIKRTENVTLKKPETFPKNQRRVFRAPDLKGMLEVFRELTDVRRYWVDVTVAPNNISCAVISEDKRQVSSPKPQIIYPQIIYGARGTRYQTFVNFNYCTGILGSQSITSGKHYWEVDVSKKTAWILGVCAGFQPDAMCNIEKNENYQPKYGYWVIGLEEGVKCSAFQDSSFHTPSVPFIVPLSVIICPDRVGVFLDYEACTVSFFNITNHGFLIYKFSHCSFSQPVFPYLNPRKCGVPMTLCSPSS [human TRIM5α, 5-codon duplication at 325] | 0.829 ± 0.44
9 | MASGILVNVKEEVTCPICLELLTQPLSLDCGHSFCQACLTANHKKSMLDKGESSCPVCRISYQPENIRPNRHVANIVEKLREVKLSPEGQKVDHCARHGEKLLLFCQEDGKVICWLCERSQEHRGHHTFLTEEVAREYQVKLQAALEMLRQKQQEAEELEADIREEKASWKTQIQYDKTNVLADFEQLRDILDWEESNELQNLEKEEEDILKSLTNSETEMVQQTQSLRELISDLEHRLQGSVMELLQGVDGVIKRTENVTLKKPETFPKNQRRVFRAPDLKGMLEVFRELTDVRRYWVDVTVAPNNISCAVISEDKRQVSSPKPQIIYGARGTRYQTFVNFNYCTYCTGILGSQSITSGKHYWEVDVSKKTAWILGVCAGFQPDAMCNIEKNENYQPKYGYWVIGLEEGVKCSAFQDSSFHTPSVPFIVPLSVIICPDRVGVFLDYEACTVSFFNITNHGFLIYKFSHCSFSQPVFPYLNPRKCGVPMTLCSPSS [human TRIM5α, 3-codon duplication at 344] | 0.648 ± 0.31
10 | MASGILVNVKEEVTCPICLELLTQPLSLDCGHSFCQACLTANHKKSMLDKGESSCPVCRISYQPENIRPNRHVANIVEKLREVKLSPEGQKVDHCARHGEKLLLFCQEDGKVICWLCERSQEHRGHHTFLTEEVAREYQVKLQAALEMLRQKQQEAEELEADIREEKASWKTQIQYDKTNVLADFEQLRDILDWEESNELQNLEKEEEDILKSLTNSETEMVQQTQSLRELISDLEHRLQGSVMELLQGVDGVIKRTENVTLKKPETFPKNQRRVFRAPDLKGMLEVFRELTDVRRYWVDVTVAPNNISCAVISEDKRQVSSPKPQIIYGARGTRYQTFVNFYQTFVNFNYCTGILGSQSITSGKHYWEVDVSKKTAWILGVCAGFQPDAMCNIEKNENYQPKYGYWVIGLEEGVKCSAFQDSSFHTPSVPFIVPLSVIICPDRVGVFLDYEACTVSFFNITNHGFLIYKFSHCSFSQPVFPYLNPRKCGVPMTLCSPSS [human TRIM5α, 7-codon duplication at 336] | 3.15 ± 2.7
11 | MASGILVNVKEEVTCPICLELLTQPLSLDCGHSFCQACLTANHKKSMLDKGESSCPVCRISYQPENIRPNRHVANIVEKLREVKLSPEGQKVDHCARHGEKLLLFCQEDGKVICWLCERSQEHRGHHTFLTEEVAREYQVKLQAALEMLRQKQQEAEELEADIREEKASWKTQIQYDKTNVLADFEQLRDILDWEESNELQNLEKEEEDILKSLTNSETEMVQQTQSLRELISDLEHRLQGSVMELLQGVDGVIKRTENVTLKKPETFPKNQRRVFRAPDLKGMLEVFRELTDVRRYWVDVTVAPNNISCAVISEDKRQVSSPKPQIYQTFVNFNYCTGILGSQSITSGKHYWEVDVSKKTAWILGVCAGFQPDAMCNIEKNENYQPKYGYWVIGLEEGVKCSAFQDSSFHTPSVPFIVPLSVIICPDRVGVFLDYEACTVSFFNITNHGFLIYKFSHCSFSQPVFPYLNPRKCGVPMTLCSPSS [human TRIM5α, 8-codon deletion at 328] | 0.161 ± 0.1
12 | MASGILVNVKEEVTCPICLELLTQPLSLDCGHSFCQACLTANHKKSMLDKGESSCPVCRISYQPENIRPNRHVANIVEKLREVKLSPEGQKVDHCARHGEKLLLFCQEDGKVICWLCERSQEHRGHHTFLTEEVAREYQVKLQAALEMLRQKQQEAEELEADIREEKASWKTQIQYDKTNVLADFEQLRDILDWEESNELQNLEKEEEDILKSLTNSETEMVQQTQSLRELISDLEHRLQGSVMELLQGVDGVIKRTENVTLKKPETFPKNQRRVFRAPDLKGMLEVFRELTDVRRYWVDVTVAPNNISCAVISEDKRQVSSPKPQIIYGARGTRYQYCTGILGSQSITSGKHYWEVDVSKKTAWILGVCAGFQPDAMCNIEKNENYQPKYGYWVIGLEEGVKCSAFQDSSFHTPSVPFIVPLSVIICPDRVGVFLDYEACTVSFFNITNHGFLIYKFSHCSFSQPVFPYLNPRKCGVPMTLCSPSS [human TRIM5α, 6-codon deletion at 338] | 2 ± 0.83
